From PMC553980
Results are given in words; binding and its absence hold for the method and conditions named. Some results given as binding are weak or reduced against the parent protein; the word gives no strength.

T1: AtRaptor1B, full length (Arabidopsis) (UniProt Q93YQ1)
T1 sequence: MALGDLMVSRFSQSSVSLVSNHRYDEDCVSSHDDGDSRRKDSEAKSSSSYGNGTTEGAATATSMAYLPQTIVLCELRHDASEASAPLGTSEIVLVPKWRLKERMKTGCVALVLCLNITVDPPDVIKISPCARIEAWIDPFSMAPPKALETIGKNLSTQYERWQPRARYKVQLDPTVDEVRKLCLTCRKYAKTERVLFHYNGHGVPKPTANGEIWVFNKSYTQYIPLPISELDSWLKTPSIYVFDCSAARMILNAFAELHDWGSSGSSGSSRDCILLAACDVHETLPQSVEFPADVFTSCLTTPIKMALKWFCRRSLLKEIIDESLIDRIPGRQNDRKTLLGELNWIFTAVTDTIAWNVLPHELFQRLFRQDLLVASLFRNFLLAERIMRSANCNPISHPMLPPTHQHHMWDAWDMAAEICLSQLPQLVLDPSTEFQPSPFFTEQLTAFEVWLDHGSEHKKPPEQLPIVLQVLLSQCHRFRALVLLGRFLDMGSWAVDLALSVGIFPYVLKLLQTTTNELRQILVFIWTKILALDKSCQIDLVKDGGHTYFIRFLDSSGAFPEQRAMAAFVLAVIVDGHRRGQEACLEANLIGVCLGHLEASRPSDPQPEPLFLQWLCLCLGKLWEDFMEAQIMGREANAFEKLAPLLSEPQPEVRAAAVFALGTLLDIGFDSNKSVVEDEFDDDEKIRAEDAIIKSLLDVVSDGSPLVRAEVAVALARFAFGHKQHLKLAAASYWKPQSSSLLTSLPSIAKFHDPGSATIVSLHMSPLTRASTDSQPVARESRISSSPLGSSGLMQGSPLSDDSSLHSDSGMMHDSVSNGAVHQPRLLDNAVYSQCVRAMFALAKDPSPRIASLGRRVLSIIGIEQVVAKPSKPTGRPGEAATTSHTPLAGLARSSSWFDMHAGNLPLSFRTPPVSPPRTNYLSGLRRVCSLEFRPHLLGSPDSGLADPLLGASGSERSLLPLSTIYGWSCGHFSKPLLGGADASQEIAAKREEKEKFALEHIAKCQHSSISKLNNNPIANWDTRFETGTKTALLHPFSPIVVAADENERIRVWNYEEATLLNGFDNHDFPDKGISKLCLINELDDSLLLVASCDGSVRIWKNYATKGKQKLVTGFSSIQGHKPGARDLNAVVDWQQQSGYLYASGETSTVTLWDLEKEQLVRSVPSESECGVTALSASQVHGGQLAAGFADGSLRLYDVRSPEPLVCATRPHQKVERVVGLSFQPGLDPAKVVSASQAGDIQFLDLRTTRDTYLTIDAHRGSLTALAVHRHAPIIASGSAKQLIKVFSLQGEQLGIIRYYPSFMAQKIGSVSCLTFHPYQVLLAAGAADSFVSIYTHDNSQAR

B1: Arabidopsis Mei2-like 1 (AML1), full length (protein, UniProt Q8W4I9 1-915)
chain: MPSDIMEQRGVSTPSHFHEDIHITSERQFGFMKTDMMPENQGGRDRLSSMPKSSWTSESYQLKPQSSFSGSHPSGSPNARNTTNGSQWESSLFSSSMSDLFSRKLRLQGSDMLSTMSANTVVTHREEEPSESLEEIEAQTIGNLLPDEDDLFAEVTGEVGRKSRANTGDELDEFDLFSSVGGMELDGDIFSSVSHRNGERGGNNSVGELNRGEIPSRTLLVGNISSNVEDYELKVLFEQFGDIQALHTACKNRGFIMVSYCDIRAAQNAARALQNKLLRGTKLDIRYSISKENPSQKDTSKGALLVNNLDSSISNQELNRLVKSYGEVKEIRRTMHDNSQIYIEFFDVRAAAAALGGLNGLEVAGKKLQLVPTYPEGTRYTSQCAANDTEGCLPKTSYSNTSSGHIGRHFPGMISSTSSDGGSMRVIHNSIGSPVNSFIERHRSLSIPIGFPPSANGISASKPVGLQEHGHHFDNSNMGIQSMPNLHPHSFSEYVDNFANGSPYTSSAFSEMVSDGSKANEGFMIHNVRGVEGFSGGGIGSPMHQSSRRPINLWSNSNTQQQNPSSGMMWPNSPSHINSIPTQRPPVTVFSRAPPIMVNMASSPVHHHIGSAPVLNSPFWDRRQAYVAESLESSGFHIGSHGSMGIPGSSPSHPMDIGSHKTFSVGGNRMDVNSQNAVLRSPQQLSHLFPGRSPMGSMPGSFDSPNERYRNLSHRRSESSSSNADKKLYELDVDRILRGEDRRTTLMIKNIPNKYTSKMLLSAIDEHCKGTYDFLYLPIDFKNKCNVGYAFINLIEPEKIVPFFKAFNGKKWEKFNSEKVATLTYARIQGKTALIAHFQNSSLMNEDKRCRPILFHTDGPNAGDQEPFPMGSNIRSRPGKPRSSSIDNYNSFSISSVSENREETPNGTDPFLKEN
B2: AML1 fragment N412 (domain or fragment, UniProt Q8W4I9 1-412)
chain: MPSDIMEQRGVSTPSHFHEDIHITSERQFGFMKTDMMPENQGGRDRLSSMPKSSWTSESYQLKPQSSFSGSHPSGSPNARNTTNGSQWESSLFSSSMSDLFSRKLRLQGSDMLSTMSANTVVTHREEEPSESLEEIEAQTIGNLLPDEDDLFAEVTGEVGRKSRANTGDELDEFDLFSSVGGMELDGDIFSSVSHRNGERGGNNSVGELNRGEIPSRTLLVGNISSNVEDYELKVLFEQFGDIQALHTACKNRGFIMVSYCDIRAAQNAARALQNKLLRGTKLDIRYSISKENPSQKDTSKGALLVNNLDSSISNQELNRLVKSYGEVKEIRRTMHDNSQIYIEFFDVRAAAAALGGLNGLEVAGKKLQLVPTYPEGTRYTSQCAANDTEGCLPKTSYSNTSSGHIGRHFPG
B3: AML1 fragment N219 (domain or fragment, UniProt Q8W4I9 1-219)
chain: MPSDIMEQRGVSTPSHFHEDIHITSERQFGFMKTDMMPENQGGRDRLSSMPKSSWTSESYQLKPQSSFSGSHPSGSPNARNTTNGSQWESSLFSSSMSDLFSRKLRLQGSDMLSTMSANTVVTHREEEPSESLEEIEAQTIGNLLPDEDDLFAEVTGEVGRKSRANTGDELDEFDLFSSVGGMELDGDIFSSVSHRNGERGGNNSVGELNRGEIPSRTL
B4: AML1 fragment N163 (domain or fragment, UniProt Q8W4I9 1-163)
chain: MPSDIMEQRGVSTPSHFHEDIHITSERQFGFMKTDMMPENQGGRDRLSSMPKSSWTSESYQLKPQSSFSGSHPSGSPNARNTTNGSQWESSLFSSSMSDLFSRKLRLQGSDMLSTMSANTVVTHREEEPSESLEEIEAQTIGNLLPDEDDLFAEVTGEVGRKS
B5: AML1 fragment 155–219 (domain or fragment, UniProt Q8W4I9 155-219)
chain: VTGEVGRKSRANTGDELDEFDLFSSVGGMELDGDIFSSVSHRNGERGGNNSVGELNRGEIPSRTL
B6: AML1 fragment 155–412 (domain or fragment, UniProt Q8W4I9 155-412)
chain: VTGEVGRKSRANTGDELDEFDLFSSVGGMELDGDIFSSVSHRNGERGGNNSVGELNRGEIPSRTLLVGNISSNVEDYELKVLFEQFGDIQALHTACKNRGFIMVSYCDIRAAQNAARALQNKLLRGTKLDIRYSISKENPSQKDTSKGALLVNNLDSSISNQELNRLVKSYGEVKEIRRTMHDNSQIYIEFFDVRAAAAALGGLNGLEVAGKKLQLVPTYPEGTRYTSQCAANDTEGCLPKTSYSNTSSGHIGRHFPG
B7: AML1 fragment 402C (domain or fragment, UniProt Q8W4I9 402-915)
chain: SSGHIGRHFPGMISSTSSDGGSMRVIHNSIGSPVNSFIERHRSLSIPIGFPPSANGISASKPVGLQEHGHHFDNSNMGIQSMPNLHPHSFSEYVDNFANGSPYTSSAFSEMVSDGSKANEGFMIHNVRGVEGFSGGGIGSPMHQSSRRPINLWSNSNTQQQNPSSGMMWPNSPSHINSIPTQRPPVTVFSRAPPIMVNMASSPVHHHIGSAPVLNSPFWDRRQAYVAESLESSGFHIGSHGSMGIPGSSPSHPMDIGSHKTFSVGGNRMDVNSQNAVLRSPQQLSHLFPGRSPMGSMPGSFDSPNERYRNLSHRRSESSSSNADKKLYELDVDRILRGEDRRTTLMIKNIPNKYTSKMLLSAIDEHCKGTYDFLYLPIDFKNKCNVGYAFINLIEPEKIVPFFKAFNGKKWEKFNSEKVATLTYARIQGKTALIAHFQNSSLMNEDKRCRPILFHTDGPNAGDQEPFPMGSNIRSRPGKPRSSSIDNYNSFSISSVSENREETPNGTDPFLKEN
B8: AML1 fragment 695C (domain or fragment, UniProt Q8W4I9 695-915)
chain: MGSMPGSFDSPNERYRNLSHRRSESSSSNADKKLYELDVDRILRGEDRRTTLMIKNIPNKYTSKMLLSAIDEHCKGTYDFLYLPIDFKNKCNVGYAFINLIEPEKIVPFFKAFNGKKWEKFNSEKVATLTYARIQGKTALIAHFQNSSLMNEDKRCRPILFHTDGPNAGDQEPFPMGSNIRSRPGKPRSSSIDNYNSFSISSVSENREETPNGTDPFLKEN
B9: AML1 fragment 402–704 (domain or fragment, UniProt Q8W4I9 402-704)
chain: SSGHIGRHFPGMISSTSSDGGSMRVIHNSIGSPVNSFIERHRSLSIPIGFPPSANGISASKPVGLQEHGHHFDNSNMGIQSMPNLHPHSFSEYVDNFANGSPYTSSAFSEMVSDGSKANEGFMIHNVRGVEGFSGGGIGSPMHQSSRRPINLWSNSNTQQQNPSSGMMWPNSPSHINSIPTQRPPVTVFSRAPPIMVNMASSPVHHHIGSAPVLNSPFWDRRQAYVAESLESSGFHIGSHGSMGIPGSSPSHPMDIGSHKTFSVGGNRMDVNSQNAVLRSPQQLSHLFPGRSPMGSMPGSFDS

Each binder was assayed against T1, AtRaptor1B, full length (Arabidopsis) (assay: two-hybrid; AH109 yeast co-transformed with AML1 or its fragments in pGADT7 (AD) and AtRaptor1B in pGBKT7 (BD); growth on medium lacking leucine, tryptophan, histidine and adenine; colonies observed 3-7 days after transformation).

Binder | binding
B1 | binds
B2 | binds
B3 | binds
B4 | no binding
B5 | no binding
B6 | no binding
B7 | no binding
B8 | no binding
B9 | no binding
